The campaign covered roughly 150,000 compounds. About 540 (0.36%) showed an effect of 50% or more. Some of the results follow.
What follows are compounds tested on Plasmodium falciparum (assay: Primary screen in NF54 nanoGlo assay, in single point, at 2uM, 72h; a lower Z score goes with more inhibition). Conditions: timepoint 72 hour.
Format: functional, Erythrocyte

In order of falling “% Inhibition” value:
1. COc1cccc(S(=O)(=O)N2CCCN(Cc3ccncc3)[C@H](c3ccccc3)CC(=O)NCC2)c1  92%
2. CCCCN1C(=O)c2ccccc2N2C(=O)CC[C@@]12C(=O)Nc1nccs1  25%
3. Cc1ncc(-c2noc(C3CC3C3CC3)n2)c(N)n1 (stereo not given)  19%
4. COC(=O)C1(CNC(=O)N2CC3C(C2)C3(C)C)CCOCC1 (stereo not given)  12%
5. c1nc(CN[C@H]2CCCC23CCCCC3)cs1  11%
6. CCc1ccc(NC(=O)N2CCC3OCCN(C)C3C2)cc1CC (stereo not given)  9%
7. CC(C)c1csc(C(=O)N2CCN(C)[C@@H](CO)C2)n1  8%
8. CCC(CC)(CC)CNC[C@H]1CCCS1(=O)=O  6%
9. O=C(CNS(=O)(=O)c1ccccc1)OC(c1ccccc1)c1ccccc1  4%
10. CCCN(CCC)S(=O)(=O)c1ccc2c(c1)N(Cc1noc(C)n1)C(=O)CO2  4%
11. c1ccc2c(CNC3CCCCC3)cccc2c1  3%
12. O=S(=O)(C1CCCC1)N1CCCC1  2%
13. O=C(CN1CCC(Cc2nc3ccccc3[nH]2)CC1)N1CCCCC1  1%
14. Cc1ccc(F)cc1NC(=O)c1cnc2c(C)cccn2c1=O  1%
15. COc1ccc(CCNc2nc3c(c(C(F)(F)F)n2)CCCCC3)cc1OC  1%
16. O=c1sc2ccccc2n1Cc1cccc2ccccc12  0%
17. CC[C@H]1c2cccn2CCN1C(=O)c1cc(C)nc(C)n1  0%
18. c1ccc(-c2ncn(Cc3ccc4c(c3)OCO4)c2C2CCOCC2)cc1  0%
19. CC(=O)c1cccc(-c2cc(NCc3cccnc3)nc3[nH]ccc23)c1  -1%
20. COc1ccccc1N1CCN(C(=O)Cn2cnc3c(cnn3-c3cc(Cl)ccc3C)c2=O)CC1  -1%
21. CC(C)=C1C2CCC1C1C(=O)N(c3nc(-c4ccccc4)c(C)s3)C(=O)C21 (stereo not given)  -2%
22. O=C(c1cn(Cc2ccc(F)cc2)nn1)N1CCCN(Cc2ccccc2F)CC1  -3%
23. O=C(CCCN1C(=O)c2ccccc2C1=O)N1CCc2ccccc2C1  -4%
24. CCOCC(NC(=O)C1CS(=O)(=O)CC1C(F)(F)F)C(C)C (stereo not given)  -4%
25. Cc1nc(C2CCOCC2)n([C@H]2CCN(S(=O)(=O)c3cc(Cl)ccc3Cl)C2)n1  -4%
26. Cc1ccc(NC[C@H]2CCN(Cc3nnnn3C3CC3)C2)nc1  -4%
27. CC(C)c1nc(CCn2cnnn2)n(-c2cccc3cccnc23)n1  -4%
28. CCCCN(C)C[C@@H](C)NC(=O)c1cccc(Cl)c1F  -5%
29. C[C@H](O)C1CCN(C(=O)Nc2ccc3sncc3c2)CC1  -5%
30. CC1=NS(=O)(=O)NC(C)=C1CCC(=O)N1CCc2ccccc2C1  -5%
31. CCC(C)(NC(=O)C(C)c1ccc2c(c1)OCCO2)C(F)(F)F (stereo not given)  -5%
32. CN(C)[C@H]1CN(C(=O)c2cccc(-c3ccc(-c4ccno4)cc3)c2)C[C@@H]1O  -7%
33. C[C@]1(CO)CCCN1C(=O)C1Cc2ccccc2C1  -7%
34. CCc1nnc2n1CCN(C(=O)C1CC1c1ccccc1F)C2 (stereo not given)  -7%
35. Cc1ccc(CNC(=O)c2c(C)c3c(=O)n(CC(=O)Nc4ccccc4)ncn3c2C)cc1  -8%
36. CC(Nc1cnccn1)C(O)Cc1ccccc1 (stereo not given)  -8%
37. CCN1CCC(NC(=O)c2ccon2)C1c1cc(F)c(F)c(F)c1 (stereo not given)  -8%
38. Cc1nc(N2CCCC2)nc(N[C@H]2COC[C@@H]2O)c1C  -9%
39. CNC(=O)c1cn(-c2ccccc2)nc1-c1cccc2ccccc12  -9%
40. Cc1cc(C(=O)NC2CCN(C(=O)C3(c4cccc(F)c4)CCC3)CC2)no1  -9%
41. Cn1ncc(Cl)c1C(=O)N1C[C@@H]2CC[C@H]1CN(C(=O)C1CCC1)C2  -9%
42. CN1CC(=O)N(CC(=O)N2CCc3c(Cl)cccc3C2)C1=O  -10%
43. O=C1C[C@@H](c2ccc(Br)cc2)NC(=O)N1  -10%
44. CC1CN(S(=O)(=O)Cl)C(C)CO1 (stereo not given)  -10%
45. Cc1ccc(F)c(NC(=O)[C@H]2OCC[C@H]2C)c1Br  -11%
46. Cc1cccc2nc(CCNc3nccn(C)c3=O)cn12  -11%
47. Cc1cc(C)cc(NC(=O)c2cc3n(n2)C[C@@H](c2ccc4c(c2)OCO4)OC3)c1  -12%
48. CCc1ccc(C(=O)NCC[C@H]2COCCC2(OC)OC)c(O)c1  -12%
49. Cn1nc(CC2CCN(Cc3ccncc3)CC2)n(-c2ccccc2)c1=O  -13%
50. C=CCn1c(=O)c2sc(N3CCCCC3)nc2n(CC(=O)NCc2ccc(C)cc2)c1=O  -14%
51. Cc1cc(C(=O)N[C@H]2COCC[C@@H]2OCc2ccccn2)nc(C)n1  -15%
52. Cc1c(C(=O)N2CCC[C@H](O)CC2)ccn1C  -15%
53. CC[C@@H](CO)NC(=O)c1cnc(Cc2c(Cl)cccc2Cl)nc1O  -16%
54. Cc1cccc(NS(=O)(=O)c2ccc3c(c2)CC(C)(C)OC3)c1  -19%
55. CCc1onc(C)c1CNC(=O)Nc1nsc2ccccc12  -21%

In order of rising Z score:
1. COc1cccc(S(=O)(=O)N2CCCN(Cc3ccncc3)[C@H](c3ccccc3)CC(=O)NCC2)c1  -7.9
2. Cc1ncc(-c2noc(C3CC3C3CC3)n2)c(N)n1 (stereo not given)  -3.15
3. CCCCN1C(=O)c2ccccc2N2C(=O)CC[C@@]12C(=O)Nc1nccs1  -2.95
4. CC(C)c1csc(C(=O)N2CCN(C)[C@@H](CO)C2)n1  -1.44
5. c1nc(CN[C@H]2CCCC23CCCCC3)cs1  -1.41
6. COC(=O)C1(CNC(=O)N2CC3C(C2)C3(C)C)CCOCC1 (stereo not given)  -1.37
7. CCc1ccc(NC(=O)N2CCC3OCCN(C)C3C2)cc1CC (stereo not given)  -1.11
8. CCC(CC)(CC)CNC[C@H]1CCCS1(=O)=O  -0.64
9. O=C(CNS(=O)(=O)c1ccccc1)OC(c1ccccc1)c1ccccc1  -0.63
10. CCCN(CCC)S(=O)(=O)c1ccc2c(c1)N(Cc1noc(C)n1)C(=O)CO2  -0.48
11. c1ccc2c(CNC3CCCCC3)cccc2c1  -0.37
12. O=S(=O)(C1CCCC1)N1CCCC1  -0.29
13. Cc1ccc(F)cc1NC(=O)c1cnc2c(C)cccn2c1=O  -0.15
14. O=C(CN1CCC(Cc2nc3ccccc3[nH]2)CC1)N1CCCCC1  -0.09
15. COc1ccc(CCNc2nc3c(c(C(F)(F)F)n2)CCCCC3)cc1OC  -0.08
16. CC[C@H]1c2cccn2CCN1C(=O)c1cc(C)nc(C)n1  -0.02
17. c1ccc(-c2ncn(Cc3ccc4c(c3)OCO4)c2C2CCOCC2)cc1  0
18. O=c1sc2ccccc2n1Cc1cccc2ccccc12  0.05
19. CC(=O)c1cccc(-c2cc(NCc3cccnc3)nc3[nH]ccc23)c1  0.13
20. COc1ccccc1N1CCN(C(=O)Cn2cnc3c(cnn3-c3cc(Cl)ccc3C)c2=O)CC1  0.22
21. CC(C)=C1C2CCC1C1C(=O)N(c3nc(-c4ccccc4)c(C)s3)C(=O)C21 (stereo not given)  0.27
22. O=C(c1cn(Cc2ccc(F)cc2)nn1)N1CCCN(Cc2ccccc2F)CC1  0.43
23. Cc1ccc(NC[C@H]2CCN(Cc3nnnn3C3CC3)C2)nc1  0.44
24. Cc1nc(C2CCOCC2)n([C@H]2CCN(S(=O)(=O)c3cc(Cl)ccc3Cl)C2)n1  0.48
25. C[C@H](O)C1CCN(C(=O)Nc2ccc3sncc3c2)CC1  0.52
26. CC(C)c1nc(CCn2cnnn2)n(-c2cccc3cccnc23)n1  0.54
27. O=C(CCCN1C(=O)c2ccccc2C1=O)N1CCc2ccccc2C1  0.55
28. CCc1nnc2n1CCN(C(=O)C1CC1c1ccccc1F)C2 (stereo not given)  0.56
29. CN(C)[C@H]1CN(C(=O)c2cccc(-c3ccc(-c4ccno4)cc3)c2)C[C@@H]1O  0.61
30. CCCCN(C)C[C@@H](C)NC(=O)c1cccc(Cl)c1F  0.65
31. CCOCC(NC(=O)C1CS(=O)(=O)CC1C(F)(F)F)C(C)C (stereo not given)  0.66
32. CCC(C)(NC(=O)C(C)c1ccc2c(c1)OCCO2)C(F)(F)F (stereo not given)  0.74
33. C[C@]1(CO)CCCN1C(=O)C1Cc2ccccc2C1  0.76
34. CC1=NS(=O)(=O)NC(C)=C1CCC(=O)N1CCc2ccccc2C1  0.84
35. Cc1cccc2nc(CCNc3nccn(C)c3=O)cn12  0.9
36. CN1CC(=O)N(CC(=O)N2CCc3c(Cl)cccc3C2)C1=O  1.01
37. CCN1CCC(NC(=O)c2ccon2)C1c1cc(F)c(F)c(F)c1 (stereo not given)  1.05
38. CC(Nc1cnccn1)C(O)Cc1ccccc1 (stereo not given)  1.07
39. Cc1ccc(F)c(NC(=O)[C@H]2OCC[C@H]2C)c1Br  1.1
40. CNC(=O)c1cn(-c2ccccc2)nc1-c1cccc2ccccc12  1.18
41. C=CCn1c(=O)c2sc(N3CCCCC3)nc2n(CC(=O)NCc2ccc(C)cc2)c1=O  1.26
42. Cc1ccc(CNC(=O)c2c(C)c3c(=O)n(CC(=O)Nc4ccccc4)ncn3c2C)cc1  1.32
43. Cc1cc(C)cc(NC(=O)c2cc3n(n2)C[C@@H](c2ccc4c(c2)OCO4)OC3)c1  1.36
44. O=C1C[C@@H](c2ccc(Br)cc2)NC(=O)N1  1.38
45. CC1CN(S(=O)(=O)Cl)C(C)CO1 (stereo not given)  1.49
46. CCc1ccc(C(=O)NCC[C@H]2COCCC2(OC)OC)c(O)c1  1.51
47. Cc1cc(C(=O)NC2CCN(C(=O)C3(c4cccc(F)c4)CCC3)CC2)no1  1.59
48. CC[C@@H](CO)NC(=O)c1cnc(Cc2c(Cl)cccc2Cl)nc1O  1.6
49. Cc1cccc(NS(=O)(=O)c2ccc3c(c2)CC(C)(C)OC3)c1  1.71
50. Cn1ncc(Cl)c1C(=O)N1C[C@@H]2CC[C@H]1CN(C(=O)C1CCC1)C2  1.71
51. Cn1nc(CC2CCN(Cc3ccncc3)CC2)n(-c2ccccc2)c1=O  1.77
52. Cc1nc(N2CCCC2)nc(N[C@H]2COC[C@@H]2O)c1C  1.81
53. Cc1cc(C(=O)N[C@H]2COCC[C@@H]2OCc2ccccn2)nc(C)n1  1.86
54. CCc1onc(C)c1CNC(=O)Nc1nsc2ccccc12  2.31
55. Cc1c(C(=O)N2CCC[C@H](O)CC2)ccn1C  2.9
